Assay results from the RNAGym collection of RNA variant scans (doi:10.7554/elife.90254).
The source gives no read counts; variants with many changes may rest on few reads.

B1: LINE1-mini (parent)
chain: GGCAGAGCUCAACACAGCGUGGCAAAGUGGCUGUGGCUAGACUGCC

Variants of: B1
Assay: self-cleavage, relative activity (ratio to wild type); higher = more cleavage; in vitro, sequencing; the parent is a self-cleaving ribozyme

| Variant | self-cleavage |
| --- | --- |
| UGCAGAGCUCAACACAGCGUGGCAACGUGGCUGUUGCUAGACUGCC | 0.05 |
| UGCAGAGAUCAACACAGCGUGUCAAAGUGGCUGUGGCUAGACUCCC | 0.18 |
| UGCAGAGGUCUAGACAGCGUGGCAAAGUAGCUGUGGCUAGACUGCC | 0.01 |
| UGCAGUGCUCAACACAGCGUGGCAAAGUGGUUGUGGCUAGACUGCC | 0.05 |
| UGAAGAGCUCAGCGCAGCGUGGCAACGUGGCUGUGGCUAGACUGCA | 0.04 |
| UGCAGAGCUCAGCACAGCGUGGCAAAGUGGCUGUGGCGAGACUGCC | 0 |
| UGCAGUGCUCAACACAGCGUGGCAAAGUGGCUGUGGCUAGACUGGC | 0.34 |
| UGCAGAGAUCAACACGGCGGGGCAAAGUGGCUGUAACUAGACUGCC | 0.03 |
| UGCAGAGCUCAACACAGCGUGGCAGGGAGGCUGUGGCUAGACUGCC | 0.03 |
| UGCAGUGCUUAACACAGCGUGGCAAAGUGGCUGCGGCUAGACUGGC | 0.02 |
| UGCAGAGCUCAACACAGCGUGGCAACGUCGCUCUGGCUAGACUGCC | 0.01 |
| UGGAGAGCUCAACACAGCGUGGCAAAGGGUCUGGGGCGAGACUGCC | 0.01 |
| UGCAGAGCUCACCACAGCGUGGCAGAGUCGCUGUGGCUAGACUGCC | 0.01 |
| UGAAGAGCUCAACACAACGUGACAAAGUGGCUGUGGCUAGACAGCC | 0.32 |
| UGCAGAGCUCAUCACAGCCUGGCAAAGUGGCUGGGGCUAGACUGCC | 0.02 |
| UGCAGAGCUCAACACAGCGUGGCCAAGUGACUGUAACGAGACUGCC | 0.01 |
| UGCAGAGGUCAACAAGGCGUGGCAAAGUGGCUGUGGCUAGACUGCC | 0.03 |
| UGCAGAGCUCACCACAGCUUCGCAAAGUGGCUGUGGCUAGACUGCC | 0 |
| UGUAGAUCUCAACACAGCGUGGCAAAGUGGCUUUGGCUAGACUACC | 0.22 |
| UGUAGAGCUCAACACAGCGUGGCAACGUGGCUGUGGCUAGACUGCC | 0.21 |
| UGCAGAGCUCAACGCAGCGUGGCAAAGUGGCUAUGGCUAGACUGCC | 0.05 |
| UGCAGAGAUCUACACAGCGUUGCAAAGUGGCUGUGGCUAGACUGCC | 0.02 |
| UGAAGAGCUCAACACAGCGUGGCAAAGUGGCUAUGGCGAGACAGCC | 0.15 |

| Variant | self-cleavage |
| --- | --- |
| UGCAGAGCUCCACACAGCGUGGCAAAUUCGCUGUGGCUAGACCGCC | 0.01 |
| UGCAGAGCUCAACACAGCGUGGCAAGGUGGCUGUGGCUAGACAGCC | 0.05 |
| UGCAGAGUUCAACACAGCGUGGCAAAGUGACUGUGGCUAGACUGCC | 0.23 |
| UGCAGAGCUCAACACUUCGUGGCAAAGUGGCUGUGGCUAGAUUGCC | 0.01 |
| UGGAGAGCUCAACACAGCGUGGCAUAGUGGCUGUGGAUAGACUGCC | 0.08 |
| UGCAGAGCUCAACACCACGUGGCAAAGUGGCUGUGGCUACACUGCC | 0.04 |
| UGCAGAGCUCACCACAGCGCGGCAAAGGGGCUGUGGCUAGACUGCG | 0 |
| UGCAGAGCUCAACACAGCGUGGCACAUUCGCUGUGGCUAGACUGAC | 0.24 |
| UGCAGAGCUCAACGCAGCGUUGCAAAGGGGCUGUGGCUAGACUGUC | 0.03 |
| UGGAGAGCGCAACACAGCGUGGCACAGUGGCUGUGGCUAGUCUGCC | 0.04 |
| UGCAGAGCUCAACGCAGCGUGGCAAUGUGGCUGUGGCUAGACUGCC | 0.27 |
| UGCAGAGCUCAACGUAGCGUGGCAAAUUGCCUAUGGCUAGACUGCC | 0.02 |
| UGUAGAGCUCAACACAACGUGGCAAAGUGGCUGUGGCUAGAAUGCC | 0.26 |
| UGCAGAGCUCAACACGGCGUACCAAAGUGGCGGUGGCUAGACUGCC | 0.01 |
| UGUAGAGCGCAAAACAGCGACGCGAUGUGGCGGUGGCUAGACUGCC | 0.06 |
| UGAAGAGCUAAACACAGCGUGGCAAAGUGGCUGUGGCUAGACUGCC | 0.09 |
| UGCAGUGCUCAACACAGCGUGGCAAAGUGGCUCUGGCUUAACUGCG | 0.05 |
| UGCAGAGCUCAACACCAAGUGGCAAAGUUUCUGUGGUUAGACUGCC | 0.04 |
| UGCAGAGCUAAACACAGCGUGGCAAACCGGCUUUGGCUAAACUGCC | 0.03 |
| UGCAGAGCUCAGCACACAGUGGCAAAGUGGCUGUGGCUAGACUGAC | 0 |
| UGCAGAGCUAAACACAGCGUGGCAAAGUGGCUUUGGCUAGACUGCC | 0.02 |
| UGGAGAGCUCAACACAGCGUGGCAAAGUGGAUGUGGCUUGACUCCU | 0.02 |
| UGUCGAGCUCAAUACAGCGUGGCAAAGUGGGUAUGGCUAGACUGCC | 0.02 |

| Variant | self-cleavage |
| --- | --- |
| UGCAGUGCUCAACACAGCGUGGCAUAGUGGCUGUGGCUAAACUGCC | 0.02 |
| UGCAGAGGUCAACACAUCGUGGCAAAGUGGCUGUGGCUAGACUGCC | 0.02 |
| UGCAGAGAACAACACGGCGUGGCAAAGUUGCAGUGGCUAGACUGAC | 0.02 |
| UGGAGAGCUCAACACAGCGUGGCUAAGUGGCUGUGGCUAGACUGCC | 0.04 |
| UGCAGAGCUCAACGCAGCCUGGCAAAGUGGCUGUGGCUAGACUGCC | 0.11 |
| UGCAGAGCUAAACACAGCGUGGCAAACUGGCUGUGGCUAGACUUCC | 0 |
| UGCAGAGCUAAACACUGCGUGGCAAAGUUGCUGUGGCUAGACUGCC | 0.01 |
| UGCAGAGCUCAACGCAGCGUGGCAAAGUGGCUGUGGCUAGACUGGC | 0.03 |
| UGCAGAGGUCAAUACAGCGUGGCAAAGUGGCUGUGGCUAUACUGCC | 0.06 |
| UGCAGAGGUCAAAACAGCGUGGCAAAGUGGCUGUUGCUAGCCUGCC | 0.02 |
| UGCAGAGCUCAACACCGCGUGGCAAAGUGGCUUUUGCUAGACUGCC | 0.07 |
| UGAAGAGCUCACCAUAGCGUGGCAAAGUGGCUGUGGCUAGACUGCC | 0.02 |
| UGUAGAGCACAAUACAUCGUGGCAAAGUAGCGGUGGCUAGACUGCC | 0.23 |
| UGUAGAGCUCAACACAGCCUGGCAAAGUGGCUGUGGCUAGACUGCC | 0.05 |
| UGCAGAGCUGAACACAGCGUGGCAUAGUGGCUGGGGCUAGACUGCC | 0.02 |
| UGCAGAGCUGAACUCAGCGUGGCAAAGUGGCUGUGGCUGGACUGCC | 0.01 |
| UGCAGAGGUCACCACAGCGUGGCAAAGUGACUGUGGCUAGACUGCC | 0.02 |
| UGCAGAGCUCAACACCGCGUGGCAAAGUGGCUUUGGUUAGUCUGCC | 0.02 |
| UGCAGAGCUAAUCACAGCGUGGCAAAGUGGCUGUGUCUAGACUGCC | 0 |
| UGCAGAGCUCAACACAGCGUGGCACUGUGGCUGUGGCUAGACUGCC | 0.05 |
| UGCAGAGCUCAACACGACGUGGCAAAGUGGCUGUGGCUAGACUGCC | 0.21 |
| UGCAGAGCUCAACACAGCGUGGCGAAGUGGCUGUGUCUAGACAGCC | 0.01 |
| UGCAGAGCUCAACACAGCGUGGCAAUGUGGUUGUGGCUAGACCGCC | 0.06 |

| Variant | self-cleavage |
| --- | --- |
| UGUCGAGCUCCACACAACGUCGCAAAGUGGCUGGGGCUAGACUGCC | 0.02 |
| UGCAGAGCUCAUUACAGCGUGGCAAUGUGGCUGUGGCUAGACUGCC | 0.04 |
| UGCAGAGAUCAACACAUCGUGUCAAAGUGGCUGUGGCUAGACUGCC | 0.07 |
| UGCAGAGUUCAACUCAGCGUGGCAAAGUGGCUGUGGCUAGACUGCC | 0.06 |
| UGCAGAGCUCCACACAGCGUGGCAAAGUGGCUGUGGCUACGCUGCC | 0 |
| UGCAGAGCUCAACACAGCGUGGCAGUGUGGCUGUGGCUAGACUGCC | 0.01 |
| UGUAGCGCUAAACACAGCGUGGCAAAGUGGCUGUGGCUAGACUGCC | 0.2 |
| UGCAGUGCUGAACACAGCGUGGCAAAGUGGCUGUGGCUAGAAUGCC | 0.03 |
| UGGAGAGCUCAACACAGCGUGGCAAAGUGGGUGUGGCUAGACUGCC | 0.06 |
| UGCAGAGCUAAACACAGCGUGGCAAAGUGGCUGUGGCUAGACUGAC | 0.01 |
| UGCAGAGCUCAACCCAGCGUGGCAAAGUUGCUGAGGCUAGACUGCC | 0.01 |
| UGCAGAGCUCAACACAGCGUGGCAAAGUGGCUGUGGCUCGGCUGCC | 0.02 |
| UGCAGAGCUAAACACAGCGUGGCAAAGUGGCUGUGGAUCGACUGCC | 0.03 |
| UGCAGAGGUCAACACAGCGUGGCAAAGUGGCCGUGGCUAGACUGCC | 0.01 |
| UGCAGAGCUCAACACAGCGUGGCAAUGUGGCUAUGGCUAGACUUUG | 0.02 |
| UGCAGAGCUAAACACAGCGUGGCAAAGUGGGUGUGGCUAGACUGCC | 0.02 |
| UGCAGAGUUCAAAACAGCGUGGAAAAGUGGCUGUGGCUAGACUGCC | 0.05 |
| UGCAGAGCUAAACACAGCGUGGCAAAGUGGCUGUGGCUCGACUACC | 0.01 |
| UGCAGAGAUCAACACAGCAUGGCAAAGUGGCUGUGGCUAGACUCCC | 0.01 |
| UGCAGAGCUCAACACUUCGUGGCAAAAUGGCUGCGGCUAGACUGCC | 0.08 |
| UGUAGAGCUCAACACAGCGUGGUGAAGUGGCUAUGUCUAGACUGAC | 0.02 |
| UGCAGAGCUAAACACAGCGUUGCAAAGUGGCCGUGGCUAGACUGCC | 0.02 |
| UGCAGAGCUCAACACAGCGUGGCAAUGUGGCUGUCGUUAGACUGUC | 0 |

| Variant | self-cleavage |
| --- | --- |
| UGCAGAGCUCAACUCAGCGUGGCAAAGUGGCGCUGGCUAGAGUGCC | 0.03 |
| UGCAGAGUUCAACACAGCGUGGCAAGGUGGCUGUGGCUAGACUGCC | 0.09 |
| UGCAGAGCUCACCACAGCGUGGCAUUGUGGCUGUGGCUAGACUGCC | 0.01 |
| UGCAGAGCUAAAUACAGCGUGCCAAAGUGGCUGUGGCUAGACUGCC | 0.01 |
| UGCAGAGCUCAACACAGCGUGGCAAAGUGGCUGUGGCUAGUUUGCC | 0.01 |
| UGCAGAGCUCAACACCGCGUGGCAAAGUUGCUGUGGCUAGACUGCC | 0.05 |
| UGCAGAGCUCAACUGAGCGUGGCAAAGUGGCUGUGGCUAGACUGCC | 0.02 |
| UGCAGAGCUCAACACUGCGUGGCAAAGUGCCUGUGGCUAGACCGAC | 0.01 |
| UGCAGAGCUCAACACGCCGUGGCAAAGUGGCUGUGGCUAAACAGCC | 0.07 |
| UGCAGAGGUCCACACAGCGUGGCAAAGUGGCUGUGGCUAGACUGCC | 0.01 |
| UGCAGAGCUCAACCCAGCGUGGCAAAGUGGCGGUGGCUACACUGCC | 0.01 |
| UGCAGUGCUAAACACAGCGUGGCAAAGUGCCUGUGGCUAGACUGCC | 0.03 |
| UGCAGUGCUAAACACAGCGUGGCAAUGUGGCUGAGGCUAGACUGCC | 0.03 |
| UGCAGAGAUCAACACAGCGACACAAAGUCGCAGUGGCUAGACUGCA | 0.02 |
| UGCAGAGCUCACCACAGCGUGGCAAACUAGCUGGGGCUAGACUGCC | 0.01 |
| UGCAGAGCUGAAAAAAGCGUGGCAACGUGGCUGUGGCUAGACUGCC | 0.01 |
| UGGAGAGCUCAACACAGCGUGGCGAAUUGGCUGUGGCUAAAUUGCC | 0.08 |
| UGCAGUGCUCAAUACAUCGUGCCAAAGUGGCUGUGGCUAGACUGCC | 0.06 |
| UGCAGAGCUCCACACAGCGUGGCAAAGUGGCUGUGGCUAAAGUGCC | 0 |
| UGCAGAGCUAAACACAUCGUGGCAAAGUGGCUGUAGCUAGACUGCC | 0.01 |
